Measurements: PubChem BioAssay (NCI)
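TGI is the concentration that stops growth completely.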 Not every entry of the source has a single result; some have several. They are shown here; other results are not. The source may hold further records. For part of these data: The tests behind the records often covered other concentration ranges, not given here; some values may only mark the edge of a range. What stands in brackets tells the records apart. Letters hold for one entry only. For part of these data: Values given together are repeats in other runs, samples, wells, individuals or studies.

Experiments:
Experiment in all cases: NCI tumour cell line growth inhibition, 384-well format
[1] = system: ACHN renal
[2] = system: HL-60(TB) leukemia
[3] = system: HOP-92 NSCLC
[4] = system: MDA-MB-231 breast
[5] = system: NCI-H322M lung
[6] = system: PC-3 prostate
[7] = system: SF-295 CNS
[8] = system: SF-539 CNS
[9] = system: SNB-19 CNS
[10] = system: T-47D breast
[11] = system: U251 glioblastoma

Structure (SMILES) | TGI [1] | TGI [2] | TGI [3] | TGI [4] | TGI [5] | TGI [6] | TGI [7] | TGI [8] | TGI [9] | TGI [10] | TGI [11]
COc1c(OCCCN2CCOCC2)ccc2c3n(c(=NC(=O)c4cnc(N)nc4)nc12)CCN3 | 448 nM [sample A, 1 test] and > 100 µM [sample B, mean of 2 tests] | 15.8 nM [sample A, 1 test] and 244 nM [sample B, mean of 2 tests] | > 50 µM [sample A, 1 test] and 506 nM [sample B, 1 test] | > 50 µM [sample A, 1 test] and 1.76 µM [sample B, 1 test] | > 50 µM [sample A, 1 test] and 1.47 µM [sample B, mean of 2 tests] | 19.5 µM [sample A, 1 test] and 1.17 µM [sample B, 1 test] | > 50 µM [sample A, 1 test] and 666 nM [sample B, mean of 2 tests] | > 50 µM [sample A, 1 test] and 3.28 µM [sample B, mean of 2 tests] | – | – | –
COc1cccc2c1C(=O)c1c(O)c3c(c(O)c1C2=O)C[C@@](O)(C(=O)CO)C[C@@H]3OC1CC(N)C(O)C(C)O1 (some centres not stated) | – | – | 548 nM [sample A, mean of 4 tests] and 191 nM [sample A, mean of 61 tests] and 10.2 µM [sample B, 1 test] | – | – | – | – | – | 453 nM [sample A, mean of 4 tests] and 308 nM [sample A, mean of 42 tests] and 13.8 µM [sample B, 1 test] | 271 nM [sample A, mean of 3 tests] and 272 nM [sample A, mean of 54 tests] and 12.6 µM [sample B, 1 test] | 155 nM [sample A, mean of 4 tests] and 78.5 nM [sample A, mean of 56 tests] and 1.27 µM [sample B, 1 test]
